Measurements taken from article PMC6794377.
Results are given in words; binding and its absence hold for the method and conditions named. Some entries that bind do so weakly or less than the wild type.

Biological target: T1, native hThrRS-L, endogenous in HEK293T (human (endogenous in HEK293T)) (UniProt A2RTX5)
T1 sequence: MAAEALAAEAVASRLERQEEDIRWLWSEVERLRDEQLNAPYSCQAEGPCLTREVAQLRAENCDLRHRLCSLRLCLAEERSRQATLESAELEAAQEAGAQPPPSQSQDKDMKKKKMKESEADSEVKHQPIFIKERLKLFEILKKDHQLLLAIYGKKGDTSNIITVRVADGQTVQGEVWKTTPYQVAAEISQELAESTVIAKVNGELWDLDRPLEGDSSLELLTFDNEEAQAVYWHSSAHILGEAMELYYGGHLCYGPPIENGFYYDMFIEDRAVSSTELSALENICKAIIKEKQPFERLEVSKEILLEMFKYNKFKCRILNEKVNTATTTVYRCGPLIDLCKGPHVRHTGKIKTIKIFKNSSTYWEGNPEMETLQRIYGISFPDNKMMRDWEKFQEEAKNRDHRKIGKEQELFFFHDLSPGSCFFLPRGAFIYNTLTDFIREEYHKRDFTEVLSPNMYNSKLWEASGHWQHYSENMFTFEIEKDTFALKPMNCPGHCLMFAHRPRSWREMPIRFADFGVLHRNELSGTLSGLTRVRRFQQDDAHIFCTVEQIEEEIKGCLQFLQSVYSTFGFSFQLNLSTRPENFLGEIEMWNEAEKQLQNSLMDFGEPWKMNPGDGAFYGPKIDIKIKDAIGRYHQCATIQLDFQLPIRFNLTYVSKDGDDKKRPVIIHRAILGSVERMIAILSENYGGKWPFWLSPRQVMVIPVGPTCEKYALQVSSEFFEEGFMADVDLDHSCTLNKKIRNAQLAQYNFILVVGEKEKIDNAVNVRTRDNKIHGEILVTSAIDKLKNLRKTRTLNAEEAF
Test: SEC; HEK293T whole cell lysate on Superose-6, 50 mM Tris-HCl pH 7.5, 50 mM NaCl, 1 mM PMSF, 1 mM DTT; fractions immunoblotted

binding: binds
B1: ArgRS, endogenous in human cells (enzyme, UniProt P54136 1-660)
chain: MDVLVSECSARLLQQEEEIKSLTAEIDRLKNCGCLGASPNLEQLQEENLKLKYRLNILRKSLQAERNKPTKNMINIISRLQEVFGHAIKAAYPDLENPPLLVTPSQQAKFGDYQCNSAMGISQMLKTKEQKVNPREIAENITKHLPDNECIEKVEIAGPGFINVHLRKDFVSEQLTSLLVNGVQLPALGENKKVIVDFSSPNIAKEMHVGHLRSTIIGESISRLFEFAGYDVLRLNHVGDWGTQFGMLIAHLQDKFPDYLTVSPPIGDLQVFYKESKKRFDTEEEFKKRAYQCVVLLQGKNPDITKAWKLICDVSRQELNKIYDALDVSLIERGESFYQDRMNDIVKEFEDRGFVQVDDGRKIVFVPGCSIPLTIVKSDGGYTYDTSDLAAIKQRLFEEKADMIIYVVDNGQSVHFQTIFAAAQMIGWYDPKVTRVFHAGFGVVLGEDKKKFKTRSGETVRLMDLLGEGLKRSMDKLKEKERDKVLTAEELNAAQTSVAYGCIKYADLSHNRLNDYIFSFDKMLDDRGNTAAYLLYAFTRIRSIARLANIDEEMLQKAARETKILLDHEKEWKLGRCILRFPEILQKILDDLFLHTLCDYIYELATAFTEFYDSCYCVEKDRQTGKILKVNMWRMLLCEAVAAVMAKGFDILGIKPVQRM
